Assay results from the supplement of paper PMC11417369.
Some of the results follow.

These sequences were tested on PfSIP2 AP2 domain 1 (GST-tagged) (assay: gcPBM binding intensity (ln(normalized median fluorescence intensity)); higher = stronger DNA binding).
Outline: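 Binding intensity values are the highest Masliner-normalised natural-log median intensity among replicate spots of either probe orientation. The binding step lasted 1 h in 1× PBS with 1% milk, 0.2 mg/ml BSA, 0.5% salmon testes DNA and 0.03% Triton X-100, using GST-tagged P. falciparum DNA-binding domains expressed in E. coli on an Agilent 4 × 180k array of primer-extended double-stranded 36-bp intergenic genomic probes plus negative controls. Alexa488 anti-GST antibody and a 488 nm scan detected bound protein.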
In the case of “AGCAGAGTTACAATTTGTACGTAATTGATATAGATA [XGTACX_site4051]”, the “gcPBM binding intensity (ln)” value is reported as 6.89. In the case of “AACATATTATCTTGTGAAAATAATATAAGTCACATT [TGCATGCA_negctrl_site339]”, the “gcPBM binding intensity (ln)” value is reported as 6.68. In the case of “ACAAAATGTAAATAAACACACATATATATATATATA [CACACA_site1281]”, the “gcPBM binding intensity (ln)” value is reported as 9.61. For “AGTTTTTATTAAAACAAAATTTAATTATAACGTTGA [XGTACX_negctrl_site298]”, the “gcPBM binding intensity (ln)” value was 6.69. “CGTAGCCCCACTAACACACACAAATATACTCAATCA [CACACA_site5587]” was tested, and the “gcPBM binding intensity (ln)” value was 7.24. In the case of “TTATATGTATGAACAAGTACATGCTATAATTATAAA [XGTACX_site1399]”, the “gcPBM binding intensity (ln)” value is reported as 6.86. “TATATATATATATACACACATACATATATATATTTG [CACACA_site857]” was tested, and the “gcPBM binding intensity (ln)” value was 9.56. With “ATATATATATATATATGTACATATATACATATATGT [XGTACX_site1521]” the “gcPBM binding intensity (ln)” value was 9.45. With “TTTTTTTTTTTTTGATGTACAATAATTAAAGAGTAA [XGTACX_site8403]” the “gcPBM binding intensity (ln)” value was 7.08. “AGTAGTCTGGAGAAGAGTACATAGTTTCTGGTAGCT [XGTACX_site2023]” was tested, and the “gcPBM binding intensity (ln)” value was 6.81. For “ATATTTACCATTGTATGTACATATATAAAATATATC [XGTACX_site3237]”, the “gcPBM binding intensity (ln)” value was 7.16. For “GTATATATATATATATGTACATATTTAGAGTTCTGT [XGTACX_site5357]”, the “gcPBM binding intensity (ln)” value was 7.29. With “AACATATACACGAACACACACACATATATATATATA [CACACA_site502]” the “gcPBM binding intensity (ln)” value was 9.44. With “AAAACAAATGAGTACACACACATAAAAATTGAAAAT [CACACA_site199]” the “gcPBM binding intensity (ln)” value was 7.49. With “TAAAGAAAAAAATGTTGTACTTTATGAAACATATTT [XGTACX_site412]” the “gcPBM binding intensity (ln)” value was 7.01. “TCGGTATCTGTTCAAAGTACACATTTGTATACAAAA [XGTACX_site1890]” was tested, and the “gcPBM binding intensity (ln)” value was 7.18. “ACACTATCTTAGATTTGTACATATTTATATATGTAT [XGTACX_site8739]” was tested, and the “gcPBM binding intensity (ln)” value was 6.88. For “TATATAACATATGGGACACACATGCAACTGTTATAT [CACACA_site3792]”, the “gcPBM binding intensity (ln)” value was 7.19. With “TTTTTATATTATTTAATGAGAAATAATTATAAACAA [CACACA_negctrl_site553]” the “gcPBM binding intensity (ln)” value was 6.9. “AAAAATATTATGATGTTTATTAGAAAGGAAAAAACT [CACACA_negctrl_site1417]” was tested, and the “gcPBM binding intensity (ln)” value was 7.06. In the case of “ATGTGATGTTATATATGTACTTATTTTTTAATAAGG [XGTACX_site1786]”, the “gcPBM binding intensity (ln)” value is reported as 7.29. In the case of “TGCTTATCCATTTCTACACACAAAAAAAAAAAAAAA [CACACA_site37]”, the “gcPBM binding intensity (ln)” value is reported as 7.35. In the case of “AAATGGGTTTATTTAACACACAAAAGAAAAAATATA [CACACA_site1938]”, the “gcPBM binding intensity (ln)” value is reported as 6.98. In the case of “TATATATATTTATGTTGTACAAAATATTATTACGTA [XGTACX_site5384]”, the “gcPBM binding intensity (ln)” value is reported as 7.22. “TTATATTATAACAAACGTACGAATTTTATACAAATA [XGTACX_site7258]” was tested, and the “gcPBM binding intensity (ln)” value was 7.1. For “TATTTTTACAATGGTAGTACCATTTTGAATCTTTGT [XGTACX_site6092]”, the “gcPBM binding intensity (ln)” value was 6.97. In the case of “CACCCGCACGTATTTGCACACATTGCCACGTAATTA [CACACA_site5786]”, the “gcPBM binding intensity (ln)” value is reported as 7.76. “GTACTCTTCTCCAGACTGCACTATACGACTCGTACA [GTGCAC_site9770]” was tested, and the “gcPBM binding intensity (ln)” value was 8.49. For “ATATATATATATATATGTACTTATATATAATATAGA [XGTACX_site3488]”, the “gcPBM binding intensity (ln)” value was 9.15. For “ATTACATACACGCGCACACACAAAAAAAAAAAAAAA [CACACA_site1334]”, the “gcPBM binding intensity (ln)” value was 7.88. With “TGGTATGTTTTACAAAGTACCCATCGATTCTTATGT [XGTACX_site2822]” the “gcPBM binding intensity (ln)” value was 6.71. For “AAAAAGTAGTAAAACAGTACAGTATTTATGCCTATT [XGTACX_site6434]”, the “gcPBM binding intensity (ln)” value was 6.75. In the case of “AAAAAAAAAAAAAGTACACACTTTTGCGTACATGTA [CACACA_site7449]”, the “gcPBM binding intensity (ln)” value is reported as 7.46. In the case of “AATATATTTTTCTACCGTACATAATAAAATATATAT [XGTACX_site1777]”, the “gcPBM binding intensity (ln)” value is reported as 7.23. For “TATTTATTTATTTATTGTACATAAGTATATATTATA [XGTACX_site6566]”, the “gcPBM binding intensity (ln)” value was 6.98. “GAACCACTAAAATGAGCATGCTCATATTTACATATA [TGCATGCA_site1033]” was tested, and the “gcPBM binding intensity (ln)” value was 6.93. In the case of “AAATAAGAGCGTAGCACACACGCATTTTATAAATGT [CACACA_site741]”, the “gcPBM binding intensity (ln)” value is reported as 6.81. “TATCATTTTATTATTCTACACACTTATCTATAATTA [CACACA_site7894]” was tested, and the “gcPBM binding intensity (ln)” value was 7. With “TTTTTTTTTTTTTTTGCATGTTGTTTAATGTATTGT [TGCATGCA_site772]” the “gcPBM binding intensity (ln)” value was 6.99. With “TAAAAATGTGGACACACACACATATTTATATTTAAT [CACACA_site6827]” the “gcPBM binding intensity (ln)” value was 7.25. With “TTTTACAAAATAAAAATATAGAATACGGTAAATTAT [GTGCAC_negctrl_site40]” the “gcPBM binding intensity (ln)” value was 7.18. With “TGTTGATGATATTACACACCCAATGAGAAAAGGAAT [CACACA_site2072]” the “gcPBM binding intensity (ln)” value was 7.25. With “ATATTTAAAGAATAAGTGCAAAATGTAATTAATTTT [GTGCAC_site9901]” the “gcPBM binding intensity (ln)” value was 7.91. In the case of “TATATTTTATAAAAAAGTACACATGAAAATGTATTT [XGTACX_site5889]”, the “gcPBM binding intensity (ln)” value is reported as 7.61. In the case of “AAAGGGGATATATGAACACACAAAAAAAAAATATAT [CACACA_site2896]”, the “gcPBM binding intensity (ln)” value is reported as 7.07. With “TGTAGTCTGGAGAAACGTACACAGTATCTGGTAACA [XGTACX_site4938]” the “gcPBM binding intensity (ln)” value was 7.05. For “TATTTATTACTATGTAAACACACATGCAATATATGT [CACACA_site8288]”, the “gcPBM binding intensity (ln)” value was 7.05. For “TTTTTTCCTTTTAATTGTACACAGATATAATATATT [XGTACX_site2230]”, the “gcPBM binding intensity (ln)” value was 7.04. In the case of “AAATTTTATTATAGCAGTACAATATAATATTATTAA [XGTACX_site1971]”, the “gcPBM binding intensity (ln)” value is reported as 6.83. “AAATATTTTTTTTCTACACACATACAAATATAGATT [CACACA_site7164]” was tested, and the “gcPBM binding intensity (ln)” value was 7.11. With “ATGCCCCATATAAACACACAAATAAAAAGAATATAC [CACACA_site7292]” the “gcPBM binding intensity (ln)” value was 7.35. For “ATATAATTAAAATGCTCACACACATAAAAAAAAATT [CACACA_site2148]”, the “gcPBM binding intensity (ln)” value was 6.91. With “CACATATATATGTGTGCATGTTGTATTATATATTTA [TGCATGCA_site632]” the “gcPBM binding intensity (ln)” value was 8.48. With “ATAATTACAAAATAAACACACATATAGATTTATATG [CACACA_site6343]” the “gcPBM binding intensity (ln)” value was 7.15. In the case of “TACATAATACATATAACACACACAATTATACATAAA [CACACA_site9060]”, the “gcPBM binding intensity (ln)” value is reported as 7.13. “ATTTTATTTTTTAAAGGTACAGTTACAGCTTATATA [XGTACX_site7513]” was tested, and the “gcPBM binding intensity (ln)” value was 7.1.
